# From publication PMC4336329 (PLoS ONE, 2015)
# The whole screen tested about 310,000 compounds, of which about 2,200 (0.71%) showed an effect of 50% or more. The effect is printed as a negative number. The list shows a part of the results.
# Target: human ether-à-go-go-related gene (hERG) potassium channel (human, UniProt Q12809)
# Test: primary screen, population patch clamp on CHO cells stably expressing hERG
# Chain of human ether-à-go-go-related gene (hERG) potassium channel (Q12809 whole entry, looked up): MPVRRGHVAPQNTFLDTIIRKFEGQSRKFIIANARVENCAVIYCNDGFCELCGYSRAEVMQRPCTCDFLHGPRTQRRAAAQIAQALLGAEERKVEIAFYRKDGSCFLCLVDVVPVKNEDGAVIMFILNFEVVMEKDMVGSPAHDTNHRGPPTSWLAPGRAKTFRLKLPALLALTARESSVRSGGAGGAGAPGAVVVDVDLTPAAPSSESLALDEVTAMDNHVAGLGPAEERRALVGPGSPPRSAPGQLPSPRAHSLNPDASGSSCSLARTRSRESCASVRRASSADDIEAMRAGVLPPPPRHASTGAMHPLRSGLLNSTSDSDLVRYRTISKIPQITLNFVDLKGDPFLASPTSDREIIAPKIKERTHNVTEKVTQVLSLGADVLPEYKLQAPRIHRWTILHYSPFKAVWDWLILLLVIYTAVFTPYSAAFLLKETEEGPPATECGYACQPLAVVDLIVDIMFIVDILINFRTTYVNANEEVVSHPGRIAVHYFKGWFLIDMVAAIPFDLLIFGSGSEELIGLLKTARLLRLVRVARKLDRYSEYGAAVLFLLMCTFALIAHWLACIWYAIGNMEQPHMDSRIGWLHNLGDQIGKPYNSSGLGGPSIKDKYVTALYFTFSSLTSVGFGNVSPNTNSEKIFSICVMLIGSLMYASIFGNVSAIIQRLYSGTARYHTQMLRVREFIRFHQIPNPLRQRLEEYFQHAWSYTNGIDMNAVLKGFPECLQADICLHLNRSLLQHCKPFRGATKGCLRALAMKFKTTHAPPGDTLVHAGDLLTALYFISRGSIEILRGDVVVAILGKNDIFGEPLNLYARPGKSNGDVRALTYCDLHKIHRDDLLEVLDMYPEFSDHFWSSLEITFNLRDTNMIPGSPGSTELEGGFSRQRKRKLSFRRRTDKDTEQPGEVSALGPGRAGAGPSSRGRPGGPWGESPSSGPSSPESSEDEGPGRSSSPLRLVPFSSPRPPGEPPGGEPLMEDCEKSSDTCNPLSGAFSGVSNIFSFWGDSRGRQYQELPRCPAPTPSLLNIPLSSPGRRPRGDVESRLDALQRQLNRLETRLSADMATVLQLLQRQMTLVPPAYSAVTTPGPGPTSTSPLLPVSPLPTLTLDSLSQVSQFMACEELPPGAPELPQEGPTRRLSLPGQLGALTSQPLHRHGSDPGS
row,Compound,"hERG current change (%, negative = inhibition) at 1uM"
1,CN1C2CCC1/C(=C\c1ccccc1F)C(=O)/C2=C/c1ccccc1F,9.1%
2,Cc1cc(C)nc(NC2=NCC(=O)N2c2ccc(Cl)cc2)n1,10.5%
3,COc1ccc2sc(N(CCCN(C)C)C(=O)c3ccc(C(=O)c4ccccc4)cc3)nc2c1.Cl,3.35%
4,CCN(CC)S(=O)(=O)c1cc(NC(=O)C(CC(C)C)NC(N)=O)ccc1C (centres unmarked),6.19%
5,CCOC(=O)C1CCN(CC(C)(C)NS(=O)(=O)c2ccc(Cl)cc2)CC1,6.18%
6,Cc1ccc2nc(-c3ccc(NC(=O)COC(=O)c4ccc(=O)[nH]c4)cc3)sc2c1,-0.499%
7,CCOP(=O)(OCC)C(NC(=O)C(Cl)Cl)C(Cl)(Cl)Cl (centres unmarked),14.7%
8,COc1ccc(NC(=O)COC(=O)c2ccc(F)cc2F)cc1,9.87%
9,O=C(CSc1nnnn1-c1ccccc1)NCc1ccco1,5.98%
10,CCCN1C(=O)/C(=C/C=C2\N(CC)c3ccccc3C2(C)C)SC1=S,5.72%
11,CC(C)[C@H](NC(=O)c1ccccc1)C(=O)OCC(=O)N1CC(=O)Nc2ccccc21,10.2%
12,N=c1c2c(ncn1CCCO)Oc1cc(O)ccc1C2c1ccccc1 (centres unmarked),0.259%
13,CC(C)OC(=O)CSc1nnc2n1C(C)(C)Cc1ccccc1-2,13.2%
14,C[C@H](NC(=O)OC(C)(C)C)C(=O)NCC1CCC(C(=O)O)CC1 (some centres unmarked),6.25%
15,Cc1c(Br)cc(C(=O)N2CCCCCC2)c(C)c1C,-8.1%
16,CCCCCCCN=CC1=C(O)CC(c2ccccc2)CC1=O (centres unmarked),3.33%
17,NC(=O)c1cc([N+](=O)[O-])c(Cl)cc1NCc1cccnc1,12.9%
18,CCOC(=O)N1CCN(CC(=O)Nc2ccc(F)cc2F)CC1,-1.13%
19,COc1ccc(NC(=O)CS(=O)c2cccc(C(F)(F)F)c2)cc1 (centres unmarked),18.6%
20,COc1ccc(CC(=O)Oc2ccc(C(C)C)cc2)cc1S(=O)(=O)N1CCOCC1,19.2%
21,Cc1cc(C(=O)NCC(=O)OCC(=O)N(C2CCCCC2)C2CCCCC2)ccc1[N+](=O)[O-],6.44%
22,Cc1ccc2nc(N3CCN(C=O)CC3)nc(-c3ccccc3)c2c1,-5.2%

row,Compound,"hERG current change (%, negative = inhibition) at 1uM"
1,O=C(Nc1ccccc1F)c1ccccc1-c1ccccc1,9.74%
2,Cc1ccc(-c2noc(-c3ccccc3C(=O)N3CCOCC3)n2)cc1,0.968%
3,N#CCNC(=O)c1cccn1-c1ncc(C(F)(F)F)cc1Cl,-11.6%
4,CC(Sc1nncs1)C(=O)Nc1ccc2c(c1)OCO2 (centres unmarked),21.4%
5,O=C1C(Cc2ccc(O)cc2)NC(=S)N1Cc1ccccc1 (centres unmarked),8.51%
6,COc1cc(/C=N/NC(=O)c2cc3c(ccc4ccccc43)o2)cc(OC)c1O,11.2%
7,O=C(CC1CCS(=O)(=O)C1)Nc1ccc[nH]c1=O (centres unmarked),5.43%
8,COc1cc(NC(=O)CSc2nc3ccccc3n2-c2ccccc2)c(C)cc1[N+](=O)[O-],8.38%
9,O=C(/C=C/c1ccccc1)Nc1nnc(SCC(=O)c2ccc3ccccc3c2)s1,12.5%
10,Cc1ccc(C2CC2c2n[nH]c(=S)n2-c2ccc(Cl)cc2)cc1 (centres unmarked),12.8%
11,Cc1nc2sc3c(c2c(=O)n1/N=C/c1ccco1)CCCC3,13.2%
12,Cc1cc(S(=O)(=O)N(Cc2ccc(C(C)C)cc2)CC2CCCO2)ccc1-n1cnnn1 (centres unmarked),-13%
13,Cc1ccc(S(=O)(=O)C(C#N)c2nc3ccccc3nc2N2CCN(C)CC2)cc1C (centres unmarked),13.2%
14,Cc1cc(C)n2ncc(C(=O)NCc3ccc(Cl)cc3)c2n1,4.94%
15,CC(C(=O)NCc1cccs1)N1C(=O)c2ccccc2C1=O (centres unmarked),6.24%
16,CCCn1cnc2c1c(=O)n(CCCCC(C)=O)c(=O)n2C,4.24%
17,COc1ccccc1C1C(C(C)=O)=C(C)N=c2s/c(=C\c3cc(OC)c(OC)c(OC)c3)c(=O)n21 (centres unmarked),8.57%
18,CCOc1cc2[nH]c(=S)n(CCCC(=O)N3CCC4(CC3)OCCO4)c(=O)c2cc1OCC,11.1%
19,C=CCOCCN(C)C1=NS(=O)(=O)c2ccccc21.Cl,2.56%
20,Cc1cc(=O)[nH]c2ccc(S(=O)(=O)N3CCOCC3)cc12,19.9%
21,COc1ccc(C(=O)N/N=C/c2ccc(OC)c(COc3c(F)c(F)cc(F)c3F)c2)cc1,15.9%
22,COc1cc(NC(=O)c2cccc([N+](=O)[O-])c2)ccc1NC(=O)c1cc2ccccc2o1,11%

row,Compound,"hERG current change (%, negative = inhibition) at 1uM"
1,O=C(CSc1nnc(SCC(=O)c2ccco2)s1)c1ccco1,6.14%
2,O=C1CN(c2nc3ccccc3n3cnnc23)CC(=O)N1CCc1ccccc1,12.1%
3,C=CCN(C(=O)Nc1ccc2c(c1)nc(C)n2C)c1ccccc1,6.88%
4,Cc1cc(NCc2ccco2)nc(N2CCC(C(=O)NC3CCCCC3)CC2)n1,-63.6%
5,COc1ccc(N(CC(=O)Nc2ccccc2F)S(=O)(=O)c2ccc(OC)c(OC)c2)cc1,10.5%
6,CC(NC(=O)c1ccc(S(=O)(=O)NCc2ccco2)cc1)c1ccc(F)cc1 (centres unmarked),10.1%
7,O=C(COC(=O)CCCNC(=O)c1ccc(Cl)cc1)Nc1cc(Cl)c(Cl)cc1Cl,6.77%
8,Cc1ccc(SCC(=O)OCC(=O)NCCc2ccccc2)cc1C,2.46%
9,O=C(NC(=S)Nc1cc(Cl)ccc1N1CCOCC1)c1ccc(-c2cccc(Cl)c2)o1,3.35%
10,COc1cc(/C=N/Nc2nnc3c(n2)[nH]c2ccccc23)ccc1O,11.8%
11,CCOC(=O)Cn1c(=O)c2c(nc3n2CCCCN3c2ccc(OCC)cc2)n(C)c1=O,-2.41%
12,COc1ccc(OC)c(NC(=O)C(=O)N/N=C(\C)CC(=O)Nc2ccc(Cl)cn2)c1,7.3%
13,CCC(NC(=O)c1ccccc1NC(=O)C(C)(C)C)C(=O)N1CCCC1 (centres unmarked),17.5%
14,O=C1N(c2ccccc2C(F)(F)F)O[C@]1(c1ccccc1)C1CCCC1,17%
15,COc1ccc(C(=O)NC(C)c2ccc(-n3ccnc3)cc2)c(OC)c1 (centres unmarked),-13.6%
16,CCN1CCN(C(C(=O)NC2CCCC2)c2ccc(Cl)cc2)CC1 (centres unmarked),7.47%
17,Cc1ccc(-c2nn(Cc3ccccc3)cc2C=O)cc1C,-0.185%
18,Fc1ccc(-c2cc3nc4c(c(N5CCOCC5)n3n2)CCCC4)cc1,8.4%
19,Cn1cnc(C(=O)N2CCN(c3ccccc3)CC2)c1C(=O)N1CCN(c2ccccc2)CC1,9.94%
20,CCn1c(SCC(=O)Nc2ccccc2OC)nc(O)cc1=O,10%
21,COc1ccc(-n2cc(CNCCCn3ccnc3)c(-c3ccccc3Cl)n2)cc1,1.48%
22,O=C(CNC(=O)c1ccco1)NCC(=O)OCc1ccc(C(=O)Oc2ccc(Cl)cc2)cc1,16.3%

row,Compound,"hERG current change (%, negative = inhibition) at 1uM"
1,O=C(Cc1ccccc1)NC(NCCc1ccccc1)C(Cl)(Cl)Cl (centres unmarked),-11.6%
2,OCC[NH+](CCO)CC(O)COc1ccc(Br)cc1.[Cl-] (centres unmarked),7.83%
3,O=C(Cn1c(CO)nc2ccccc21)NCCc1ccc(F)cc1,4.45%
4,COc1ccccc1NC(=S)N/N=C/c1cccc(C)c1,14.8%
5,Cc1nc(C)c(-c2nnc(-c3ccc(C(C)(C)C)cc3)o2)cc1C(=O)NN,7.52%
6,COc1ccc(S(=O)(=O)NCC2CCCO2)c(Cl)c1Cl (centres unmarked),6.76%
7,C[C@@H](NC(=O)c1nc[nH]c1C(=O)NCC(=O)OCc1ccccc1)c1ccccc1,-2.31%
8,CCCCC(=O)NC(NC(=O)CCCC)c1ccc(OCCC)c(OC)c1,-6.04%
9,CCn1ncc(Cl)c1C(=O)NC(=S)Nc1c(C)cc(C)cc1[N+](=O)[O-],1.62%
10,COC(=O)c1ccccc1NC(=O)CSc1nccn1C,9.7%
11,O=C(O)c1ccc(C(=O)c2ccc3c(c2)C(=O)N(Cc2ccco2)C3=O)cc1,3.64%
12,C=CCn1c(SCC(=O)c2ccc(Br)cc2)nnc1C(CC(C)C)NC(=O)c1cccs1 (centres unmarked),3.73%
13,Cc1ccc(SCC(=O)OCC(=O)NCc2cccs2)cc1,9.05%
14,Cc1cc(C)n2ncc(C(=O)Nc3cccc(O)c3)c2n1,5.08%
15,O=C(c1ccc2c(c1)OCO2)C1CCCN(Cc2ccc3cccc(F)c3n2)C1 (centres unmarked),-81.5%
16,Cc1ccc(C(=O)N/C(=C\c2ccc(Cl)cc2)C(=O)NCCN2CCOCC2)cc1,-70.6%
17,COC(=O)c1cc2oc(C)cc2n1CC(=O)Nc1ccc(C)c(C)c1,13.6%
18,O=C(Nc1ccccc1Oc1cccnc1)C1CCCN(C/C=C/c2ccc(F)cc2)C1 (centres unmarked),-11.8%
19,COc1ccc(Nc2nc(-c3cccs3)cs2)c(OC)c1,2.87%
20,O=[N+]([O-])c1ccc(O)c(C=Nc2ccc3oc(Cc4ccc(Cl)cc4)nc3c2)c1,11.3%
